Experimental data as given in PubChem BioAssay AID686979 (National Center for Advancing Translational Sciences (NCATS), 2013).
Values joined by “and” are separate entries in the source; they are usually repeats but may differ in a detail not shown here. Equal values may be shown once. Hit rate of the full screen: of about 420,000 compounds, about 50,000 (12%) were called active. The inconclusive results got no clear call from the source; some entries with a clear call stand among them for comparison. Calls follow the shape of the dose curve; as a rule, active = well fitted inhibition curve with a large enough effect; inconclusive = small, poorly fitted or top-dose-only effect; inactive = flat fitted curve, though single readings scatter. Where the call is inconclusive, the potency comes from a doubtful curve fit.

Test: qHTS for Inhibitors of human tyrosyl-DNA phosphodiesterase 1 (TDP1): qHTS in cells in presence of CPT; also: nearly all actives have a fitted effect of over 55% in size
Conditions: chicken DT40 Tdp1-/-;hTDP1 cells + 20 nM CPT, ATP luminescence, 48 h; activity change, negative = growth inhibition: at 46.2 µM (top of the series) unless noted
Outline: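 Chicken DT40 Tdp1-/- cells stably complemented with human TDP1 were seeded at 400 cells/well in medium containing 20 nM camptothecin, exposed to pin-transferred compounds, and grown at 37 °C for at least 48 hr. Viability was read as ATP luminescence.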
% is scaled to controls: 0 for no effect and ±100 for the full control effect; potency is read from the fitted curve at half-maximal effect; tags tell the direction and shape of the fitted curve.

Which Potency does the source give for `O=C(NC1CCCC1)c1ccc2c(=O)n(Cc3ccccc3)c(SCc3ccc([N+](=O)[O-])cc3)nc2c1` here?
Its Potency is inconclusive: 3.66 µM [inhibitor, full curve].

Which Potency does the source give for `CCOC(=O)c1c(NC(=O)CCN2CCOCC2)sc(C)c1-c1ccccc1` here?
Its Potency is active: 20.6 µM.

For `COC(=O)C1=C(C)N(CCCC(=O)O)C(=O)NC1c1ccc(Cl)cc1` (configuration not stated), which “activity change, negative = growth inhibition” value is on record?
Its value is inactive: -1.81%.

Which “activity change, negative = growth inhibition” value does the source give for `CSc1ccccc1NC(=O)CSc1nnc(Cc2ccccc2)o1` here?
Its value is inactive: -21.7%.

With `COc1ccc(F)cc1-c1cc(C(=O)Nc2cccnc2)[nH]n1` as the compound, how does the “activity change, negative = growth inhibition” value read?
The value was inactive: -3.36%.

For `CCOC(=O)N1CCN(Cc2nc3cc(NC(=O)CC)ccc3n2C(C)C)CC1`, which Potency is on record?
The Potency was active: 0.92 µM.

With `COc1ccccc1-n1c(-c2ccco2)n[nH]c1=S` as the compound, how does the “activity change, negative = growth inhibition” value read?
The value was inactive: -7.47%.

With `CCc1ccc([C@@H]2CC=C(C(=O)O)[C@H](c3ccc(Cl)cc3)N2S(=O)(=O)c2ccc(C)cc2)cc1` as the compound, how does the “activity change, negative = growth inhibition” value read?
Its value is inactive: -10.3%.

With `Cc1ccc(N(CC(=O)NC(C)c2ccccc2)S(=O)(=O)c2c(C)n[nH]c2C)cc1` (configuration not stated) as the compound, how does the “activity change, negative = growth inhibition” value read?
The value was inactive: -24.7%.

With `COc1ccc2nc(C3CCCCC3)c3c(c2c1)CCC3` as the compound, how does the Potency read?
The Potency was inconclusive: 29.1 µM [inhibitor, single point].

For `COc1ccc(CCNC(=O)CCCCCN2C(=O)[C@@H]3Cc4ccccc4CN3C2=O)cc1OC`, which Potency is on record?
Its Potency is active: 20.6 µM.

For `Cc1cc(C)cc(NC(=O)C2CCCN(c3nccc(C)n3)C2)c1` (configuration not stated), which Potency is on record?
Its Potency is inconclusive: 29.1 µM [inhibitor, single point].

Which Potency does the source give for `O=C(Nc1ccc(C(=O)NCCCN2CCN(c3ccccc3)CC2)cc1)C1=CSCCO1` here?
The Potency was inconclusive: 29.1 µM [inhibitor, single point].

With `Cc1cc2c(cc1S(=O)(=O)CCC(=O)NC1CCCCC1C)OCC(=O)N2` (configuration not stated) as the compound, how does the “activity change, negative = growth inhibition” value read?
Its value is inactive: -18.9%.

For `O=C1C=C(c2ccc3c(c2)oc2ccccc23)C[C@@H](c2ccc3c(c2)OCO3)C1`, which Potency is on record?
The Potency was inconclusive: 25.9 µM [inhibitor, single point].

For `COc1ccccc1Cn1c(C)c(C(=O)NCc2cccc(C)c2)sc1=O`, which Potency is on record?
The Potency was inconclusive: 29.1 µM [inhibitor, single point].

Which “activity change, negative = growth inhibition” value does the source give for `CSc1nnc(CCNC(=O)OC(C)(C)C)o1` here?
Its value is inactive: -1.68%.

With `COc1cccc(CN(CC(=O)NC2CCCC2)C(=O)Cn2nnc(-c3cccs3)n2)c1` as the compound, how does the Potency read?
Its Potency is inconclusive: 0.517 µM [inhibitor, full curve, poor fit].

For `CCc1ccc(NC(=O)CSc2nc3c(c(=O)n(C)c(=O)n3C)n2C)cc1`, which Potency is on record?
Its Potency is inconclusive: 13 µM [inhibitor, partial curve, poor fit].

With `CCCn1c(=N)n(CC(=O)OCC)c2ccccc21` as the compound, how does the “activity change, negative = growth inhibition” value read?
Its value is inactive: -6.6%.

For `CC(C)c1ccccc1NC(=S)NC1CCN(Cc2ccccc2)CC1`, which Potency is on record?
The Potency was inconclusive: 29.1 µM [inhibitor, single point].

For `CN(C)S(=O)(=O)c1cccc(NC(=O)c2c[nH]c3ccccc23)c1`, which Potency is on record?
The Potency was inconclusive: 29.1 µM [inhibitor, single point].

With `O=C1OCCN1C(=O)[C@H]1[C@H](c2ccc(Cl)cc2)C(c2ccccc2)=NN1c1ccccc1` as the compound, how does the Potency read?
The Potency was inconclusive: 13 µM [inhibitor, partial curve].

Which Potency does the source give for `Nn1c(-c2cccs2)nc2sc3c(c2c1=O)CCCC3` here?
Its Potency is inconclusive: 16.4 µM [inhibitor, single point].

For `Cc1ccc(C)c(OCc2cc(C(=O)N3CC[C@@H]4CCCC[C@H]4C3)no2)c1`, which Potency is on record?
The Potency was inconclusive: 29.1 µM [inhibitor, single point].

Which Potency does the source give for `CSc1cccc(NC(=S)N(CCCN2CCCC2)Cc2cccn2Cc2ccc(Cl)cc2)c1` here?
Its Potency is inconclusive: 29.1 µM [inhibitor, single point].

With `O=C(COc1cccc(Br)c1)Nc1ccc(Cl)c(S(=O)(=O)N2CCOCC2)c1` as the compound, how does the Potency read?
The Potency was active: 20.6 µM.

For `CCN(CC)CCN(Cc1cc2cc3c(cc2[nH]c1=O)OCO3)C(=S)NCCCOC`, which “activity change, negative = growth inhibition” value is on record?
Its value is inactive: 1.44%.

Which “activity change, negative = growth inhibition” value does the source give for `CCN(CC)C(=O)[C@H]1C[C@H](CC(=O)NC(C)(C)C)C(=O)N2CCc3c([nH]c4cc(CCC(=O)N(C)C)ccc34)[C@]12C` here?
The value was inactive: -0.233%.

Which Potency does the source give for `CC(C(=O)NC(C)(C)C)N(Cc1cccs1)C(=O)CCN1CCc2ccccc21` (configuration not stated) here?
The Potency was active: 23.1 µM.

With `COc1ccc(NC(=O)COC(=O)c2ccc(NS(=O)(=O)/C=C/c3ccccc3)cc2)cc1` as the compound, how does the “activity change, negative = growth inhibition” value read?
Its value is inactive: 15.2%.

For `COc1cccc(OC)c1C(=O)N1CCN(Cc2ccccc2C(F)(F)F)CC1`, which Potency is on record?
The Potency was inconclusive: 29.1 µM [inhibitor, single point].

Which Potency does the source give for `Cc1ccc(Sc2ccc(N3CCCC(C(=O)Nc4ccc(Br)cc4)C3)nn2)cc1` (configuration not stated) here?
Its Potency is inconclusive: 23.1 µM [inhibitor, single point].

Which Potency does the source give for `O=C(NCCc1ccc(Cl)cc1)c1cc(-c2ccccc2)n[nH]1` here?
The Potency was inconclusive: 29.1 µM [inhibitor, single point].

Which “activity change, negative = growth inhibition” value does the source give for `COC(=O)c1c(O)cc(C(C)(C)C)n(-c2ccccc2)c1=O` here?
Its value is inactive: -0.181%.

For `CCc1ccc(OCC(=O)Nc2cccc3c2CCCC3)cc1`, which Potency is on record?
Its Potency is inconclusive: 29.1 µM [inhibitor, single point].

For `Cc1nc2ccn(Cc3cccnc3)c(=O)c2cc1C(=O)N1CCN(c2ccccc2F)CC1`, which Potency is on record?
Its Potency is inconclusive: 25.9 µM [inhibitor, partial curve, poor fit].

For `O=c1[nH]c(CSc2ncnc3sc(-c4ccccc4)cc23)nc2ccccc12`, which Potency is on record?
The Potency was active: 16.4 µM.

With `CN(c1ccccc1)S(=O)(=O)c1cccc(NC(=O)C2=NN(c3ccccc3)C(=O)CC2)c1` as the compound, how does the Potency read?
The Potency was inconclusive: 25.9 µM [inhibitor, single point].

For `O=S(=O)(Cc1cc(Cl)nc(-c2ccncc2)n1)c1ccccc1`, which Potency is on record?
Its Potency is inconclusive: 29.1 µM [inhibitor, single point].

Which “activity change, negative = growth inhibition” value does the source give for `NC(=O)c1ccsc1NC(=O)CS(=O)(=O)c1ccccc1` here?
Its value is inactive: -9.81%.

With `Cc1cc(C(=O)CSc2n[nH]c(N)n2)c(C)n1C1CC1` as the compound, how does the Potency read?
The Potency was inconclusive: 23.1 µM [inhibitor, single point].

For `O=C(c1ccc(F)cc1)C1CCN(C(=O)c2ccccc2)CC1`, which “activity change, negative = growth inhibition” value is on record?
The value was inactive: -1.43%.

Which Potency does the source give for `Cc1ccc(C)c(N2CCN(c3nc4ccccc4c(=O)n3-c3ccc(Cl)cc3)CC2)c1` here?
The Potency was active: 5.8 µM.

For `CN1C(=O)/C(=C/c2ccc(C(F)(F)F)cc2)Sc2ccc(C(=O)N3CCN(c4ccccn4)CC3)cc21`, which Potency is on record?
Its Potency is inconclusive: 25.9 µM [inhibitor, single point].

Which Potency does the source give for `c1ccc(Nc2nc(-c3ccoc3)nc3ccccc23)cc1` here?
The Potency was inconclusive: 29.1 µM [inhibitor, single point].

Which “activity change, negative = growth inhibition” value does the source give for `O=S(=O)(c1ccccc1Cl)N1CCN(c2nc(-c3ccccc3)nc3ccccc23)CC1` here?
Its value is inactive: -25.8%.

Which “activity change, negative = growth inhibition” value does the source give for `CC(Sc1nnc(C2CC2)n1C1CC1)C(=O)NCc1cccs1` (configuration not stated) here?
Its value is inactive: 1.28%.

For `CN(C)CCN(C(=O)c1ccc2ccccc2c1)c1nc2ccc(Br)cc2s1`, which Potency is on record?
The Potency was inconclusive: 6.51 µM [inhibitor, single point].

With `COC(=O)c1c(NC2=NS(=O)(=O)c3ccccc32)sc2c1CCC(C(C)(C)C)C2` (configuration not stated) as the compound, how does the Potency read?
The Potency was active: 18.4 µM.

For `COc1cc2nc(N(C)CCCNC(=O)C3CCCO3)nc(N)c2cc1OC` (configuration not stated), which Potency is on record?
The Potency was “inactive”.

With `CC(=O)c1cc2c(cc1NC(=O)Cc1c(C)noc1C)OCO2` as the compound, how does the Potency read?
The Potency was inconclusive: 29.1 µM [inhibitor, single point].

For `C=CCn1c(Cc2cccc3ccccc23)n[nH]c1=S`, which Potency is on record?
The Potency was active: 20.6 µM.

For `COc1cccc(CNC(=O)c2ccc(-c3nc(CS(=O)c4ccccc4)c(C)o3)cc2)c1` (configuration not stated), which Potency is on record?
Its Potency is inconclusive: 29.1 µM [inhibitor, single point].

For `CCN(CC)S(=O)(=O)c1cccc(C(=O)NC(C(=O)Nc2nnc(C)s2)C(C)C)c1` (configuration not stated), which activity change, negative = growth inhibition is on record?
Its activity change, negative = growth inhibition is inconclusive: -30.5% [inhibitor].

For `Cc1ccc(-c2nc3cc(NC(=O)C(C)C)ccc3o2)cc1C`, which Potency is on record?
The Potency was inconclusive: 29.1 µM [inhibitor, single point].

For `COc1ccc(NC(=O)Cn2cnc3ccc(S(=O)(=O)N4CCC(C)CC4)cc3c2=O)c(OC)c1`, which Potency is on record?
Its Potency is inconclusive: 13 µM [inhibitor, partial curve].

Which Potency does the source give for `NNC(=O)c1cc(-c2ccc(N)cc2)nc2ccc(Br)cc12` here?
Its Potency is inconclusive: 20.6 µM [inhibitor, single point].

For `Cn1c2ccc(F)cc2c2nc3ccccc3nc21`, which Potency is on record?
The Potency was inconclusive: 13 µM [inhibitor, single point].

Which Potency does the source give for `COc1ccccc1C(=O)Nc1ccnn1C1CCN(CCCC2CCCC2)CC1` here?
Its Potency is inconclusive: 23.1 µM [inhibitor, single point].

Which Potency does the source give for `COc1ccc(CCNC(=O)c2cc(S(=O)(=O)N3CCC4(CC3)OCCO4)ccc2F)cc1OC` here?
The Potency was inconclusive: 16.4 µM [inhibitor, partial curve].

For `O=C(Nc1ccccc1C(F)(F)F)c1cc(-c2ccccc2O)on1`, which Potency is on record?
The Potency was inconclusive: 35.5 µM [inhibitor, partial curve, poor fit].

With `CCn1nc(C)c(CNC(=O)c2cc(COc3ccccc3SC)on2)c1C` as the compound, how does the Potency read?
Its Potency is active: 20.6 µM.

With `NC(=O)C1CCN(C(=O)Nc2csc3ccccc23)CC1` as the compound, how does the “activity change, negative = growth inhibition” value read?
The value was inactive: 23.8%.

With `N#Cc1c(NC(=S)NC(=O)c2ccccc2)sc2c1CCC2` as the compound, how does the Potency read?
Its Potency is active: 18.4 µM.

With `CC(C)c1csc(CN2CCC(C(=O)Nc3cccc(-c4ccco4)c3)CC2)n1` as the compound, how does the Potency read?
The Potency was inconclusive: 29.1 µM [inhibitor, single point].

With `O=C(Cc1cn(-c2ccccc2)nc1-c1ccccc1)N1CCCCC1` as the compound, how does the Potency read?
Its Potency is inconclusive: 23.1 µM [inhibitor, partial curve].

Which “activity change, negative = growth inhibition” value does the source give for `Cc1cccc(NS(=O)(=O)c2ccc(C(=O)N3CCC3)cc2)c1C` here?
The value was inactive: -14.6%.

For `COc1ccc(CCN=C(N)NS(=O)(=O)c2ccc(C)c(C)c2)cc1OC`, which “activity change, negative = growth inhibition” value is on record?
The value was inactive: -5.23%.

For `O=C(CSc1ncnc2ccccc12)NCCc1ccccc1`, which “activity change, negative = growth inhibition” value is on record?
The value was inactive: -2.13%.

Which “activity change, negative = growth inhibition” value does the source give for `COc1ccc(/C=C/C(=O)Nc2ccc(C)cc2)cc1` here?
The value was inactive: -24.4%.

Which Potency does the source give for `CCN(CC)c1ccc(NC(=O)Cn2ncc3c(C)n(Cc4ccccc4F)c(C)c3c2=O)c(C)c1` here?
Its Potency is inconclusive: 23.1 µM [inhibitor, partial curve] and inconclusive: 18.4 µM [inhibitor, single point].
